Measurements reported in the GPR68 mutational scans of Howard et al. (2025).
Scores with a large standard error are left out. Not listed are two conditions whose scores span a narrow range. Names with del lack the residues named; names with ins carry added residues between the positions named. For some assays here: The data file names ogerin without a concentration.

B1: GPR68, Q15743 (parent)
chain: MGNITADNSSMSCTIDHTIHQTLAPVVYVTVLVVGFPANCLSLYFGYLQIKARNELGVYLCNLTVADLFYICSLPFWLQYVLQHDNWSHGDLSCQVCGILLYENIYISVGFLCCISVDRYLAVAHPFRFHQFRTLKAAVGVSVVIWAKELLTSIYFLMHEEVIEDENQHRVCFEHYPIQAWQRAINYYRFLVGFLFPICLLLASYQGILRAVRRSHGTQKSRKDQIQRLVLSTVVIFLACFLPYHVLLLVRSVWEASCDFAKGVFNAYHFSLLLTSFNCVADPVLYCFVSETTHRDLARLRGACLAFLTCSRTGRAREAYPLGAPEASGKSGAQGEEPELLTKLHPAFQTPNSPGSGGFPTGRLA

Experiments:
[1] = variants of: B1; test: cAMP reporter score (Enrich2 score, wild type = 0); higher = more signal; HEK293T, FACS bins
[2] = variants of: B1; test: surface expression score (Enrich2 score, wild type = 0); higher = more signal; HEK293T, FACS bins

Row | Variant | cAMP reporter score ([1]; pH 5.5) | cAMP reporter score ([1]; pH 6) | cAMP reporter score ([1]; pH 6, modulator: ogerin) | cAMP reporter score ([1]; pH 6.5, modulator: ogerin) | surface expression score [2]
1 | V58Q | -1.67 | -0.866 | -1.15 | -0.757 | -2.02
2 | V58C | -1.4 | -0.924 | -0.672 | -0.281 | -2.17
3 | V58N | -1.02 | – | – | -1.58 | -1.9
4 | V58L | -1.45 | – | -0.962 | -1.41 | –
5 | V58K | -1.21 | -0.949 | -1.45 | -0.66 | -2.67
6 | V58A | -1.26 | -0.531 | -0.935 | – | -2.89
7 | C61_N62insG | -0.761 | -0.848 | -1.77 | -1.65 | -1.74
8 | G57del | -2.72 | -0.856 | – | -1.48 | –
9 | L63_T64del | -0.079 | -0.311 | -0.25 | 0.125 | -1.2
10 | L56del | -1.5 | -0.674 | -1.48 | -1.68 | -2.62
11 | L68_F69insGS | -1.94 | -1.96 | -2.16 | -1.44 | -2.48
12 | N62S | 0.067 | -0.839 | 0.463 | 0.156 | 1.08
13 | N62W | -1.35 | -0.81 | -1.02 | -0.844 | -1.55
14 | N62C | 0.742 | 1.28 | 1.46 | 2.51 | 1.66
15 | N62I | -1.08 | -0.952 | -2.1 | -0.747 | -2.67
16 | N62Y | -0.885 | – | -2.95 | -0.785 | -0.446
17 | N62R | -0.448 | – | -0.651 | -0.424 | –
18 | N62Q | -0.04 | -1.32 | -0.416 | -1.09 | 0.052
19 | N62K | -2.26 | – | -2.21 | -0.418 | -2.25
20 | N62G | 1.96 | 1.74 | 1.08 | 1.38 | –
21 | N62D | -0.752 | -0.441 | -0.829 | -0.627 | -0.683
22 | N62L | -1.21 | -0.572 | -0.868 | -1.14 | -1.94

Row | Variant | cAMP reporter score ([1]; pH 5.5) | cAMP reporter score ([1]; pH 6) | cAMP reporter score ([1]; pH 6, modulator: ogerin) | cAMP reporter score ([1]; pH 6.5, modulator: ogerin) | surface expression score [2]
23 | N62A | 0.284 | -0.017 | 0.402 | 0.203 | 1.1
24 | N62M | 0.345 | 0.604 | 1.43 | 1.57 | 2.24
25 | N62E | -0.23 | – | -0.873 | 0.176 | -2.35
26 | N62T | -0.257 | -0.851 | -1.64 | -0.391 | -1.71
27 | N62H | -0.933 | -0.708 | -1.77 | -1.02 | -2.15
28 | N62V | -2.53 | – | -1.31 | -1.26 | -0.872
29 | N62F | -0.299 | -1.07 | -0.095 | -0.997 | 0.212
30 | N54del | -1.21 | -0.642 | -0.984 | -0.626 | -2.32
31 | C61R | -1.17 | -1.37 | -1.14 | -1.04 | -2.06
32 | C61T | -0.155 | -0.498 | -0.098 | -0.554 | -0.605
33 | C61A | 1.23 | – | -0.005 | 0.091 | -0.213
34 | C61I | 1.28 | 1.32 | 1.13 | 1.83 | 2.2
35 | C61M | -0.026 | 0.22 | 0.124 | -0.361 | 0.756
36 | C61Y | -0.982 | -0.971 | -1.11 | -1.14 | -0.99
37 | C61L | 1.21 | -0.487 | 0.232 | 0.371 | 1.42
38 | C61F | -0.614 | -0.467 | -0.161 | -0.263 | 1.11
39 | C61E | -2.1 | -1.63 | -1.67 | 0.468 | -1.54
40 | C61K | -1.08 | – | -0.953 | -1.98 | –
41 | C61D | -0.239 | -0.913 | -1.65 | -1.45 | -2.73
42 | C61Q | -0.565 | -0.805 | – | – | -2.71
43 | C61W | -0.119 | -0.136 | 0.323 | 0.516 | -0.364
44 | C61S | -0.725 | -0.776 | -1.01 | -1.05 | –

Row | Variant | cAMP reporter score ([1]; pH 5.5) | cAMP reporter score ([1]; pH 6) | cAMP reporter score ([1]; pH 6, modulator: ogerin) | cAMP reporter score ([1]; pH 6.5, modulator: ogerin) | surface expression score [2]
45 | C61P | -1.7 | -1.59 | -2.13 | -0.844 | -2.17
46 | C61V | 0.347 | 3.09 | 0.699 | 2.2 | 1.87
47 | C61G | -0.583 | – | -1.26 | -0.328 | –
48 | C61N | -1.72 | -1.05 | -1.39 | -0.937 | –
49 | L68_Y70del | -1.99 | -0.679 | -2.17 | -1.12 | -1.4
50 | L63_T64insG | -0.566 | -0.223 | -0.749 | -0.13 | -2.26
51 | V65del | -2.05 | -0.985 | -2.15 | -0.413 | -2.98
52 | V58_L60del | -1.41 | -0.942 | -1.55 | -0.357 | –
53 | V65_A66insGSG | -1.89 | -2.01 | – | -2.48 | –
54 | T64del | -1.59 | -1.86 | -1.4 | -0.858 | -1.95
55 | V58_Y59insGS | -0.425 | – | -0.691 | -2.48 | –
56 | D67del | -1.69 | -0.75 | -1.83 | -0.484 | -2.69
57 | L68_F69insG | -0.876 | -0.474 | – | 0.08 | -3.1
58 | N62_L63insGSG | -1.01 | -1.52 | -0.85 | -0.248 | -2.4
59 | T64_V65insGSG | -0.512 | 0.381 | – | -1.11 | -3.44
60 | G57_V58del | -1.15 | -1.21 | -1.23 | -0.783 | -3.15
61 | G57_V58insGSG | -0.278 | -1 | – | -1.29 | –
62 | F69_I71del | -1.13 | -1.38 | – | -0.619 | -2.8
63 | L56_G57del | -0.939 | -0.419 | -1.26 | -0.332 | –
64 | Y59_C61del | -1.46 | -0.636 | -2.54 | -1.29 | -2.67
65 | V65_D67del | -1.06 | -0.713 | -1.37 | -0.876 | -2.19
66 | R53del | -2.15 | -1.42 | -1.3 | -0.494 | -2.65
